Assay results reported in the supplement of paper PMC3724861.
This is one part of the list.

These sequences were tested on T1, Caupolican (Caup) homeodomain DNA-binding domain (assay: PBM E-score (8-mer, recovered from the published 9-mer minima) (E-score (dimensionless, -0.5 to 0.5)); Drosophila protein; higher = stronger relative binding preference, active = 0.31 or more).
T1 sequence: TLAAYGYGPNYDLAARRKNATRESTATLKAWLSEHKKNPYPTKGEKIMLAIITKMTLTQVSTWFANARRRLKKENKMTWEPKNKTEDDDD
How it was run: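 An enrichment score, with higher meaning stronger, expresses relative binding preference for each short DNA word. The protein used was Caup's homeodomain DNA-binding domain (residues 214-303), produced by in vitro transcription and translation and tested at 100 nM on custom-designed protein binding microarrays. The 8-mer values were recovered from published 9-mer scores, each equal to the lower of its two constituent 8-mer scores.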

Sequence	PBM E-score
GTGTAGTA	active: 0.357
AACGTCGT	inactive: -0.0343
AGGGTCAT	inactive: -0.0271
AGCGTACG	inactive: -0.0814
GGGCCCCC	inactive: -0.37
TGAGCGAA	inactive: -0.0448
AACCCCGA	inactive: -0.102
CTAGAACA	inactive: 0.222
CCGTAAGA	inactive: -0.0394
ACCTTAGC	inactive: 0.00415
CTAGGGAG	inactive: -0.217
TGGTCCAA	inactive: -0.0751
ACACGATA	active: 0.322
GAAAGCAA	inactive: 0.0589
AGGTAGGA	inactive: -0.0302
GACCTAAA	inactive: -0.0048
AGTGAGTA	inactive: 0.11
ACGCCGCC	inactive: -0.235
GTCGAGTA	inactive: 0.114
AACGCGAA	inactive: 0.0338
GTTAGACA	inactive: 0.269
CGTGTGTA	inactive: 0.283
AATCCGGA	inactive: 0.0501
AATGCGTG	inactive: 0.0934
CGCCTCAA	inactive: -0.163

Sequence	PBM E-score
CACTTTTA	inactive: 0.0205
TACTAATA	inactive: 0.195
GGCATGAC	inactive: -0.077
ATAACTAT	inactive: 0.175
CTCATCTC	inactive: -0.158
GCGCGCAC	inactive: -0.11
CGGTGACG	inactive: -0.0368
CCTTAGCG	inactive: -0.179
GCCCAGAA	inactive: -0.132
CCAGCGGC	inactive: -0.182
CTAGTAGC	inactive: 0.00748
ACTCATAC	inactive: 0.102
CTTAGACA	inactive: 0.0709
CCAACACA	inactive: 0.17
TATTTGAA	inactive: 0.0785
ATTGAAGC	inactive: 0.0795
AATCGCAT	inactive: 0.14
AAGGTCTA	inactive: -0.112
ACTACGAG	inactive: 0.051
CCGCTGAA	inactive: -0.0918
CCTGCTCA	inactive: 0.0153
AAGTAACA	inactive: 0.306
AAAAAGGT	≥ 0.0466
GCCTTGAC	inactive: -0.166
AAAGACTG	inactive: -0.0766

Sequence	PBM E-score
GTCGTGCA	inactive: 0.137
AAGCCTTA	inactive: -0.145
AGGGTAGG	inactive: -0.0919
AGTGGTTA	inactive: 0.151
CCATACGC	inactive: -0.0602
ACTTGGTA	inactive: 0.117
ATACAGTG	inactive: 0.152
GGGGTACC	inactive: -0.194
CTGGGGAC	inactive: -0.201
AGTTATTC	inactive: 0.135
GGGCTTAA	inactive: -0.171
TAGTAGAA	inactive: 0.0196
ATTGTAGA	inactive: 0.214
GCGGCGAA	inactive: -0.133
ACGATCAA	inactive: 0.145
GCTGACCC	inactive: -0.159
GAGATCGA	inactive: 0.0226
CAACTGGC	inactive: -0.0785
CCTCCACC	inactive: -0.213
ACTTTACT	inactive: 0.00848
ACGGAGCA	≥ -0.0071
TCTACTAA	inactive: 0.062
CAATACCA	inactive: 0.153
GGTAGAGA	inactive: -0.0903
AAATCGCG	inactive: -0.00018

Sequence	PBM E-score
TCCATCGA	inactive: -0.0338
TGCGCGAA	inactive: 0.0393
CGAGGACG	inactive: -0.159
GTACCAAA	inactive: 0.117
GGGTTGTA	inactive: 0.26
GATTCGAC	inactive: 0.104
ATGGATCC	inactive: 0.0296
TCGGAAGA	inactive: -0.0036
GTCCGGTA	inactive: 0.00302
ATTTACCG	inactive: 0.0622
CGTATTTC	inactive: 0.0429
GGCTCTTA	inactive: -0.0548
CATATGCG	inactive: 0.088
AACCTCAA	inactive: 0.0625
AGAAGCGA	≥ -0.0139
CAATCAGA	inactive: 0.0415
CACACTGG	inactive: -0.0163
ACAGTCAG	inactive: -0.0033
CACCAACC	inactive: -0.0462
ACAATTAA	inactive: 0.152
CGTGTCGC	inactive: 0.265
AAGAGCAC	inactive: 0.0428
CCACGCGA	inactive: -0.113
GAGCCATA	inactive: -0.0461
AAACCATA	≥ 0.126

Sequence	PBM E-score
CCAAGGGG	inactive: -0.222
GATAGTGA	inactive: 0.039
CTCGCTAC	inactive: -0.0641
GAGCTAGC	inactive: -0.0595
AAGATGAG	inactive: -0.0391
ATAACAGG	inactive: 0.155
CGGGAGTC	inactive: -0.129
CGTTAACA	inactive: 0.164
AATAACGT	inactive: 0.135
GCGAAAAC	inactive: -0.102
CATGGATA	inactive: 0.157
AACACTTA	inactive: 0.208
CTGGGCGA	inactive: -0.196
AAGGCGAT	≥ -0.0088
ATCGCGAA	inactive: -0.00496
CGAGAAGA	inactive: -0.0787
CGAAATCA	inactive: 0.113
GCCTCACA	inactive: -0.0407
CGAGTTGC	inactive: 0.00414
ATCGACCG	inactive: -0.0554
ATCTGCAT	inactive: 0.107
ACTGTTAT	inactive: 0.161
AAGTAACT	inactive: 0.101
TCAAAAAA	inactive: 0.0309
AGTGATAG	inactive: 0.0983

Sequence	PBM E-score
TGCACGAA	inactive: 0.129
ACAAACGA	≥ 0.148
TCAGTGGA	inactive: -0.0671
CCAGCCGG	inactive: -0.247
AGGTAAGC	inactive: -0.095
TCAACCCA	inactive: -0.0421
ATGAGTGA	≥ 0.0935
GCAGCCAA	inactive: -0.0315
CATGGGGC	inactive: -0.118
CAGAAGTA	inactive: 0.068
CTCGGCTC	inactive: -0.153
ATTCTGAC	inactive: 0.0764
CCAGAATC	inactive: -0.0272
GCTCTAAC	inactive: -0.0729
CACTGAGG	inactive: -0.148
GATAATCA	inactive: 0.0651
AATTGAAA	inactive: 0.073
TGTAGTAA	active: 0.376
CATCATTC	inactive: 0.0951
ATGTGAAG	inactive: 0.163
CTTGACTA	inactive: 0.0303
AGCTGGAA	inactive: -0.0742
CCGAAACA	inactive: 0.125
ATTCCTCA	inactive: 0.0774
ACACGTCA	active: 0.325

Sequence	PBM E-score
ACGCACAT	≥ 0.108
ATAGATAG	inactive: 0.0932
TACGGGCA	≥ -0.014
CTCGCGAC	inactive: -0.0978
CCAAGACA	inactive: 0.0664
AGTATCAT	inactive: 0.238
AGTCTTTA	inactive: 0.0559
AGACGGCG	inactive: -0.18
CTCATGAC	inactive: 0.0559
AACTAGCG	inactive: -0.00906
AATCTGTG	inactive: 0.071
AGGCGTGG	inactive: -0.284
AACCAGTC	inactive: 0.00925
CCAAGCAG	inactive: -0.157
ACACTCCA	inactive: 0.0415
GGATCTAA	inactive: -0.071
CGCTTACG	inactive: -0.151
ATTACGTG	inactive: 0.16
GAGGGATA	inactive: -0.0315
CTAACCCC	inactive: -0.214
GTCGGCTA	inactive: -0.0125
GGATCGTA	inactive: 0.0632
CCATTGAA	inactive: 0.0124
CTATCAGC	inactive: 0.0543
GTTTGATA	inactive: 0.137

Sequence	PBM E-score
CGCAATTA	inactive: -0.0107
AAAGTACG	inactive: -0.0302
GTCATACA	inactive: 0.233
AATAGTAG	inactive: 0.0364
ACAAAGCT	inactive: 0.0752
ACTTTCAC	≥ 0.0535
CAACCGTC	inactive: -0.0286
CCTAGCGC	inactive: -0.199
AACACACT	inactive: 0.256
AGTGCATG	inactive: 0.0912
ATATCGCC	inactive: 0.0522
GCCTTCAA	inactive: -0.0384
ATATTGCA	inactive: 0.104
TAGCCAAA	inactive: -0.0244
CTCTAGTC	inactive: -0.0877
TGACCCAA	inactive: 0.0379
ATTATACC	inactive: 0.104
AGCTGGCA	inactive: -0.13
AGGGGGTA	inactive: -0.211
CCTTGCGA	inactive: -0.125
ATCAGAAC	inactive: 0.107
AAACTGGC	inactive: -0.096
GCAACGGC	inactive: -0.0473
CTTTCGAC	inactive: -0.0343
ATACGGGG	inactive: -0.0872

Sequence	PBM E-score
AGTCGGAG	inactive: -0.15
GGCACGTA	inactive: 0.00967
AGCCCTGG	inactive: -0.211
GGCCCTCA	inactive: -0.313
GCCACTAC	inactive: -0.152
ACACATTA	inactive: 0.267
ACGCATAA	inactive: 0.0794
ACCGTCAC	inactive: -0.111
CTTAGGCA	inactive: -0.0925
TATGCGAA	inactive: -0.0523
CGTTGTAG	inactive: 0.154
AACGCTTA	inactive: -0.0409
GACATCTC	inactive: 0.159
AAGAGGTA	inactive: 0.0556
CTGGGGTC	inactive: -0.163
CGCTATTA	inactive: 0.036
AGGTATCG	inactive: -0.0139
CATTTGGG	inactive: -0.0406
AAGTCTAT	inactive: 0.0708
CAAAGGAA	inactive: 0.131
GAGCCGTA	inactive: -0.076
GCAATTCA	inactive: -0.0152
CGCACGTC	inactive: -0.0953
CACCAATA	inactive: 0.0966
ACCAGATA	≥ 0.153
